Laboratory results from PubChem BioAssay AID485294 (National Center for Advancing Translational Sciences (NCATS), 2010).
Hit rate of the full screen: of about 370,000 compounds, about 150 (0.041%) were called active. The shares of active, inactive and inconclusive entries below differ from those in the screen. The call rests on the fitted dose curve; in most records, active means well fitted inhibition curve with a large enough effect; inconclusive means small, poorly fitted or top-dose-only effect; inactive means flat fitted curve, though single readings scatter. Potencies of inconclusive entries are left out as doubtful fits.

The compounds below were run against Beta-lactamase (Escherichia coli (strain K12)) (UniProt P00811) (assay: qHTS Inhibitors of AmpC Beta-Lactamase (assay with detergent)). Conditions: AmpC hydrolysis of nitrocefin, absorbance 480 nm, 0.01% Triton; series mostly up to 114 µM.
UniProt P00811, sequence (P00811 whole entry, looked up): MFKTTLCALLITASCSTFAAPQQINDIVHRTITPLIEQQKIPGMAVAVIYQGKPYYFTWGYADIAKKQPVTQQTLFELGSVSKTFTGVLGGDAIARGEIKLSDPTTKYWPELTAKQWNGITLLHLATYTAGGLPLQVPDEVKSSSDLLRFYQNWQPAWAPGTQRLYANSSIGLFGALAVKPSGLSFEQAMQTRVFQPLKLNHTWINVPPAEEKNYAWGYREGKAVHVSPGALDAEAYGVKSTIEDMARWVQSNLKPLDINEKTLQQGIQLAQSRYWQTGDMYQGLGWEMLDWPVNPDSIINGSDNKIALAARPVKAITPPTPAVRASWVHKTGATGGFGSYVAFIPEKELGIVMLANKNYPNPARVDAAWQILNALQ
How it was run: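 20 mM phosphate pH 7.0 + 0.01% (detergent screen) or 0.0001% Triton X-100; 5.3 nM AmpC reagent; cpd preinc 15 min RT; nitrocefin (800 uM stock) to start; A480 q20 s × 4 min; Activity was normalised to no-enzyme and no-compound control wells.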
Further: nearly all actives have a fitted effect of over 25% in size.
Potency means the concentration at half of the fitted maximal effect; tags describe the fitted curve by direction and shape.

Structure (SMILES) | Potency
Cc1c(NC(=O)CSc2nc3c(cnn3-c3ccccc3)c(=O)[nH]2)c(=O)n(-c2ccccc2)n1C | inconclusive [inhibitor, full curve]
NC(=O)COC(=O)CCCc1c[nH]c2ccccc12 | inconclusive [inhibitor, partial curve, poor fit]
CCOCCn1c(C)c(C(=O)OCC)c2cc(O)c3ccccc3c21 | inactive
O=C(N/C(=C/c1ccco1)C(=O)N1CCCC1)c1cccs1 | inconclusive [inhibitor, full curve]
CCOc1ccc(N(CC(=O)Nc2ccc(Br)cc2)S(C)(=O)=O)cc1 | inactive
O=C1CCCC(=NCc2ccco2)C1 | inconclusive [inhibitor, full curve, poor fit]
COc1cc(NS(=O)(=O)c2ccc(NC(=S)NC(=O)c3cccs3)cc2)nc(OC)n1 | inactive
Cc1cc(C)c[n+](-c2nc3ccccc3nc2C(=C=[N-])C#N)c1 | inconclusive [inhibitor, full curve, poor fit]
CC(=O)NC(Cc1ccc(F)cc1)C(=O)NC1CCN(C(=O)Nc2ccc(F)cc2)CC1 (stereo unspecified) | inactive
Cc1ccc2c(c1)C1CN(C)CCC1N2C(=O)Cn1nnc(-c2ccccc2F)n1 (stereo unspecified) | inconclusive [inhibitor, full curve, poor fit]
CCCCN(C(=O)c1ccc(N2CCCC2=O)cc1)c1c(N)n(CC(C)C)c(=O)[nH]c1=O | inconclusive [inhibitor, partial curve, poor fit]
Oc1ccc(C[C@H]2CNCCN2CCc2cc(C(F)(F)F)cc(C(F)(F)F)c2)cc1 | inconclusive [inhibitor, full curve, poor fit]
Cn1c2c(c(=O)n(C)c1=O)C(C(F)(F)F)(C(F)(F)F)N=C(CCC1CCCCC1)N2 | inconclusive [inhibitor, single point]
Cn1nnnc1SCCNCc1cccnc1 | inconclusive [inhibitor, full curve]
CSc1nnc2n(-c3cccc(C)c3)c(=O)c3c4c(sc3n12)CCCC4 | inactive
CCC(C)NC(=O)COc1ccc(OCc2ccccc2)cc1 (stereo unspecified) | inconclusive [inhibitor, full curve, poor fit]
O=C(COC(=O)c1ccc(OC(F)(F)F)cc1)NCCN1C(=O)CSC1=O | inconclusive [inhibitor, full curve, poor fit]
CC(Cc1ccsc1)NC(=O)CCc1nnc(CCc2ccccc2)o1 (stereo unspecified) | inactive
CCS(=O)(=O)C1=NN2C(=N)/C(=C\c3ccc(OS(=O)(=O)c4ccccc4)c(OC)c3)C(=O)N=C2S1 | inactive
COC(=O)C1C(=O)C=C(Nc2ccc(F)cc2F)CC1c1ccccc1 (stereo unspecified) | inactive
COc1ccccc1-c1c(C(F)(F)F)oc2cc(OS(C)(=O)=O)ccc2c1=O | inconclusive [inhibitor, partial curve, poor fit]
CC(=O)Nc1ccccc1-c1nc2ccccc2nc1OCC(=O)c1ccc2ccccc2c1 | inconclusive [inhibitor, single point]

Structure (SMILES) | Potency
C/C(=N\Nc1cccc2ccccc12)c1c(O)n(Cc2ccccc2)c(=O)[nH]c1=O | inactive
CCOC(=O)c1c(N)sc(C(=O)OCCOC)c1C | inconclusive [inhibitor, full curve, poor fit]
CCCn1c(NC(=O)CN2C(=O)NC3(CCCCC3)C2=O)nc2ccccc21 | inconclusive [inhibitor, full curve, poor fit]
CCc1nnc(NC(=O)C2CCN(C(=O)NC3CCCCC3)CC2)s1 | inactive
S=c1[nH]nc(-c2cc(-c3ccsc3)n[nH]2)n1-c1cccc2ccccc12 | inconclusive [inhibitor, single point]
CCN1CCN(C(=O)c2ccc(Cn3c(=O)[nH]c4cc(OC)c(OC)cc4c3=O)cc2)CC1 | inconclusive [inhibitor, full curve, poor fit]
CC(C)NC(=O)NC(=O)CSc1nnc(C(F)(F)F)n1C | inconclusive [inhibitor, full curve, poor fit]
Cc1ccc(C(=O)NCc2ccccc2)cc1Br | inconclusive [inhibitor, full curve]
Cc1ccc(CCSCC(=O)O)cn1 | inactive
CCCn1c(NC(=S)Nc2ccccc2)nc2ccccc21 | inconclusive [inhibitor, full curve]
CCCCCOC(=O)c1c(N)n(CCOC)c2nc3ccccc3nc12 | inconclusive [inhibitor, partial curve, poor fit]
CC(=O)c1ccc(NC(=O)COC(=O)CCC(=O)c2cccs2)cc1 | inconclusive [inhibitor, partial curve]
CCCn1c2c(c(O)c(C(=O)Nc3ncccc3C)c1=O)CCCC2 | inconclusive [inhibitor, full curve, poor fit]
CC(=O)c1cccc(Nc2nc(-c3ccccc3)nc3ccccc23)c1 | inactive
COc1cccc(C(=O)CN2C3=NCCCN3c3ccccc32)c1 | inconclusive [inhibitor, full curve, poor fit]
CC1CCN(S(=O)(=O)c2ccc(C(=O)N3CCCC(C(F)(F)F)C3)cc2)CC1 (stereo unspecified) | inconclusive [inhibitor, single point]
Clc1cccc(OCCN2CCOCC2)c1 | inconclusive [inhibitor, single point]
O=C(CSc1cn[nH]n1)Nc1nc2ccccc2s1 | inconclusive [inhibitor, partial curve, poor fit]
O=c1cc(CN2CCN(Cc3ccccc3)CC2)c2cc(Cl)ccc2o1 | inconclusive [inhibitor, partial curve, poor fit]
CCC(=O)Nc1nonc1-c1nc2ccccc2n1CCC(C)C | inconclusive [inhibitor, single point]
Cc1cc(C)nc(/N=c2/ssnc2Cl)c1 | inconclusive [inhibitor, partial curve, poor fit]
N#CC1=C(N)N(c2ccccc2Sc2ccccc2)C(=O)C1 | inconclusive [inhibitor, full curve]

Structure (SMILES) | Potency
CCCCn1c(-c2cccnc2)nc2cc3[nH]c(=O)c(C(C)C)nc3cc21 | inconclusive [inhibitor, partial curve, poor fit]
CC1Nc2nc(NC(=O)C(C)(C)C)[nH]c(=O)c2N(C)C1C (stereo unspecified) | inconclusive [inhibitor, partial curve]
O=P(C(=NCCO)NO)(N1CCOCC1)N1CCOCC1 | inconclusive [inhibitor, partial curve, poor fit]
O=C(NC(=S)Nc1c(Cl)ccc2nsnc12)c1ccco1 | inactive
CCOC(=O)c1c(NC(=O)CSc2cn(CC)c3ccccc23)sc2c1CCC2 | inconclusive [inhibitor, partial curve, poor fit]
COc1ccc(-c2csc(-c3c(N)c(C(=O)c4ccccc4)n4ccccc34)n2)cc1OC | inactive
Cc1ccc(C)c(NC(=S)N2CCC(NC(=O)c3ccccc3)CC2)c1 | inconclusive [inhibitor, full curve, poor fit]
O=C(COn1nnc2ccccc21)NCC1CCCCC1 | inconclusive [inhibitor, single point]
COc1ccc2c(Cl)c(-c3nnc(SCC(N)=O)n3C)sc2c1 | inconclusive [inhibitor, full curve, poor fit]
CN(C)C(=O)C1Cc2ccccc2CN1S(=O)(=O)c1ccc(F)cc1 (stereo unspecified) | inconclusive [inhibitor, full curve]
O=C(NCCCN1CCCC1=O)C1CCN(S(=O)(=O)N2CCOCC2)CC1 | inconclusive [inhibitor, partial curve, poor fit]
c1cc2c3c(cccc3c1)C(N1CCCCC1)=N2 | inconclusive [inhibitor, full curve]
CCn1cc(-c2cc(C(=O)O)c3ccccc3n2)c(C)n1 | inconclusive [inhibitor, partial curve]
O=C(CCCN1C(=O)[C@H]2CC=CC[C@H]2C1=O)NCc1nc(-c2ccc(Cl)cc2)no1 | inactive
CC(C)[C@H](N)c1cn([C@@H](CO)C(=O)N2CCNCC2)nn1 | inconclusive [inhibitor, single point]
Cc1ccccc1NC(=O)c1c(C)nc(SCC(=O)OCc2ccccc2)c(C#N)c1-c1ccc(F)cc1 | inactive
Cc1ccc(NC(=O)c2ccco2)c(NC(=O)C2CCCO2)c1 (stereo unspecified) | inconclusive [inhibitor, full curve, poor fit]
Cc1ccc(CCNC(=O)CN(c2ccc(C(C)C)cc2)S(=O)(=O)c2c(C)nn(C)c2C)cc1 | inactive
O=C(CN1CCCCCC1)N/N=C/c1ccc2ccccc2c1 | inactive
Cc1cc(C)c(N2C(=NC(=O)CCCC(=O)O)SC3CS(=O)(=O)CC32)c(C)c1 (stereo unspecified) | inconclusive [inhibitor, partial curve, poor fit]
C=CCNC(=S)NNC(=O)c1ccc([N+](=O)[O-])cc1 | inconclusive [inhibitor, full curve, poor fit]
CCN(CC)C(=O)CSc1nc2cc3c(cc2c(=O)n1CCCC(=O)NCc1ccc(OC)cc1)OCO3 | inconclusive [inhibitor, single point]
